Reference: PMC4336329 (PLoS ONE, 2015)
About 2,200 (0.71%) of roughly 310,000 compounds showed an effect of 50% or more. The effect is printed as a negative number. The list shows a part of the results.

Target: human ether-à-go-go-related gene (hERG) potassium channel (human, UniProt Q12809)
Assay: primary screen, population patch clamp on CHO cells stably expressing hERG

Sequence of human ether-à-go-go-related gene (hERG) potassium channel (Q12809 whole entry, looked up): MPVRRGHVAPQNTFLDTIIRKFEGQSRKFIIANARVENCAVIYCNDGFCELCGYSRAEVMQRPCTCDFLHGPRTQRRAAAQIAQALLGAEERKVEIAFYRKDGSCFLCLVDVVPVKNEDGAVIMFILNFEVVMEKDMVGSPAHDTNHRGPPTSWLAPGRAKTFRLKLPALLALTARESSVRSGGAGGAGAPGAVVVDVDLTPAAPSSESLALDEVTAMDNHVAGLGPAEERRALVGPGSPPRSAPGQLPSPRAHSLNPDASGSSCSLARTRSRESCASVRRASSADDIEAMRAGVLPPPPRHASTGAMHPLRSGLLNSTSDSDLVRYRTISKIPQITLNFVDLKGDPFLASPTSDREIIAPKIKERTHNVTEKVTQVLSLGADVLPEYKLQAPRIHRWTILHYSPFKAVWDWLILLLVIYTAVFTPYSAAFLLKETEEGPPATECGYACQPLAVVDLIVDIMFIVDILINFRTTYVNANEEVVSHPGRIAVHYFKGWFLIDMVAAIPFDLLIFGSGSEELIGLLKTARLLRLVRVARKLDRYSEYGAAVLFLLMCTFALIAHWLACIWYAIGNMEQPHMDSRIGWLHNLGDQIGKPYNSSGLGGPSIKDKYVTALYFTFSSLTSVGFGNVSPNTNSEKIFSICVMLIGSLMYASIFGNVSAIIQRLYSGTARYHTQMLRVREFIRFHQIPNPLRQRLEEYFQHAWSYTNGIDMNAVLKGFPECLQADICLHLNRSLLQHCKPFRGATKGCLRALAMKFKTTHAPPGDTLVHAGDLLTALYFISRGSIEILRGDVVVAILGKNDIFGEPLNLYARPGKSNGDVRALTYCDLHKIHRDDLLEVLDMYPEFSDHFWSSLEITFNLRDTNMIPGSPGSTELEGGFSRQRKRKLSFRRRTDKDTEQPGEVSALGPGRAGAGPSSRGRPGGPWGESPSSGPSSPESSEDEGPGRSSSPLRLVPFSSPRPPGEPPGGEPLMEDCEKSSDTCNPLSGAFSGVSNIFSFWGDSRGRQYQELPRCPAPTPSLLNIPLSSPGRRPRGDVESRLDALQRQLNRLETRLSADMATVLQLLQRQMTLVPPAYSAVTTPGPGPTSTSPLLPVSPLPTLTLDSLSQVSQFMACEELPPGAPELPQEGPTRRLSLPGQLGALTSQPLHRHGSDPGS

Structure (SMILES)	hERG current change (%, negative = inhibition) at 1uM [%]
CCOC(=O)c1ccc(NCC(O)COc2ccccc2)cc1 (stereo not shown)	-7.11
COC(=O)c1ccccc1NC(=O)NCCc1ccccc1OC.Cl	5.9
COc1ccc(-c2cc(N3C(=O)Nc4ccccc4N3O)n[nH]2)c(OC)c1	-4.85
O=C(NCc1ccccc1)c1onc(CSc2ccc(F)cc2)c1C(=O)NCCCN1CCOCC1	-54.9
COc1ccc(C2CC(c3c(Cl)cccc3Cl)n3nc(N)nc3N2)cc1 (stereo not shown)	8.39
O=c1[nH]c2ccccc2c2cn(-c3ccccc3)nc12	14.7
COc1ccc(NC2CCCN(C(=O)C3=NN(C)C(=O)CC3)C2)cc1OC (stereo not shown)	30.5
O=Cc1ccc(N2N=C(c3ccccc3)CC2c2ccccc2)cc1 (stereo not shown)	20.4
FC(F)(F)c1cccc(NC(=S)Nc2ccc(Cl)c(Cl)c2)c1	19.7
COc1ccccc1CNC(=O)CSc1nc(C)cs1	6.97
Cc1cc(SCc2ccccc2Cl)nc(=O)[nH]1	16.5
COC1OC(COC(=O)c2ccccc2)C(OC(=O)c2ccccc2)C1OC(=O)c1ccccc1 (stereo not shown)	14.7
Cc1nn(Cc2noc(C(=O)NCc3ccc4c(c3)OCO4)n2)c(C)c1Br	1.08
COc1ccc(C(CNC(=O)CNC(=O)c2ccccc2)N2CCCC2)cc1 (stereo not shown)	-3.77
CCOC(=O)c1[nH]c2ccc(OC)cc2c1N=CN(C)C	10.3
O=C(CCCc1ccccc1)NCc1cccnc1	10.7
Cc1cc(C)c(NC(=O)C(C)Sc2nc3ccc(N4C(=O)c5ccccc5C4=O)cc3s2)c(C)c1 (stereo not shown)	6.67
O=C(Nc1cc2c3c(c1)CC(=O)N3CCC2)c1ccco1	-15
CCOc1ccc(OCCSc2nc3ccccc3[nH]2)cc1	3.95
CC1C/C(=C/c2ccccn2)C(=O)/C(=C/c2ccccn2)C1 (stereo not shown)	-0.0207
O=C(/C=C/c1ccccc1)Nc1cccc(C(=O)O)c1	16.9
C=CCC(CC)C(=O)NC(=O)N1CCCc2ccccc21 (stereo not shown)	8.52
CN1c2ccsc2/C(=N/Nc2ccccc2)CS1(=O)=O	10.5
O=C(Cn1cc2c(n1)CCCCC2)Nc1c(F)cc(F)cc1Br	7.58
Cc1ccc(NS(=O)(=O)c2cccc(C(=O)Nc3c(C)n(C)n(-c4ccccc4)c3=O)c2)cc1	3.46
